Source: PubChem BioAssay AID1030 (National Center for Advancing Translational Sciences (NCATS), 2008)
Screen size: about 220,000 compounds; about 16,000 (7.3%) were called active. The inconclusive results got no clear call from the source; some entries with a clear call stand among them for comparison. Calls come from the whole dose curve; as a rule, active = well fitted inhibition curve with a large enough effect (not every such curve was filed as active); inconclusive = small, poorly fitted or top-dose-only effect, or another doubt; inactive = no such curve, though single readings can be large or run the other way. No potency is given beside an inconclusive call; the fits are too rough.

biological target: Aldehyde dehydrogenase 1A1 (Homo sapiens) (UniProt P00352); test: qHTS Assay for Inhibitors of Aldehyde Dehydrogenase 1 (ALDH1A1); conditions: Purified ALDH1A1, NADH fluorescence, propionaldehyde substrate; series mostly up to 75.3 µM;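 for activity, negative = inhibition: plate controls were no enzyme wells and a reference inhibitor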
Potency is the fitted concentration of half-maximal effect; tags give direction and shape of the fitted curve.

Chain of UniProt P00352 (P00352 whole entry, looked up): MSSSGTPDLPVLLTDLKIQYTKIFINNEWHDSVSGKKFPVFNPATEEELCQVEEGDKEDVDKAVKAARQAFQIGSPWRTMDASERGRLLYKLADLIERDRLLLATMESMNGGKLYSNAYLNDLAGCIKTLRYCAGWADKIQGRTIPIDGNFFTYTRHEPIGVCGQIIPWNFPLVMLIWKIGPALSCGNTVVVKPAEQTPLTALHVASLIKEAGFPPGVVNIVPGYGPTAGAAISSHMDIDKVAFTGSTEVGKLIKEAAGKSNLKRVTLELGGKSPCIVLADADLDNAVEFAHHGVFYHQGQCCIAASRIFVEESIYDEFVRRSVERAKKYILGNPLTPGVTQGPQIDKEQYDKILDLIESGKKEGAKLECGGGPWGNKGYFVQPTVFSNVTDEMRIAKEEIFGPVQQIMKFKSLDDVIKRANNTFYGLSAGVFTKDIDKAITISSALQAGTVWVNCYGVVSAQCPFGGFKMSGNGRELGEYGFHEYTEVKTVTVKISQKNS

**Q.** Cc1onc(-c2ccccc2Cl)c1C(=O)Nc1sc2c(c1C#N)CCC2 was tested. Which Potency did it give?
**A.** inconclusive [inhibitor, partial curve]

**Q.** For Cc1ccc(NC(=O)c2cccs2)cc1S(=O)(=O)N(C)C, which Potency is on record?
**A.** inconclusive [inhibitor, partial curve]

**Q.** With CC(=O)Nc1cc(C(=O)NCc2ccco2)ccc1Sc1ccc(Cl)cc1 as the compound, how does the Potency read?
**A.** inconclusive [inhibitor, single point]

**Q.** How did the Potency turn out when Oc1ccc(/C=N/Nc2nc(N3CCCCCC3)nc(N3CCCCCC3)n2)c(O)c1 was run?
**A.** inactive

**Q.** CC(=O)N1CC[n+]2c(-c3ccc(Cl)cc3Cl)csc21 was tested. Which Potency did it give?
**A.** inactive

**Q.** How did the Potency turn out when Cc1ccc(CNC(=O)c2ccccc2NS(C)(=O)=O)cc1 was run?
**A.** inconclusive [inhibitor, partial curve]

**Q.** COc1cccc(S(=O)(=O)NCc2ccc(C(=O)NCC3CCCO3)cc2)c1 (stereo unspecified) was tested. Which Potency did it give?
**A.** active: 14.1 µM

**Q.** Cc1ccc(-c2nnc3sc(-c4ccncc4)nn23)cc1 was tested. Which Potency did it give?
**A.** inconclusive [inhibitor, partial curve]

**Q.** Which Potency does the source give for Cn1c(-c2ccc(F)cc2)cnc1SCC(=O)N1CCCc2ccccc21 here?
**A.** inconclusive [inhibitor, single point]

**Q.** How did the Potency turn out when Cc1c(O)ccc(-c2[nH]ncc2-c2nc3ccccc3s2)c1O was run?
**A.** inconclusive [inhibitor, single point]

**Q.** For O=C(NCc1cccnc1)c1cccc(S(=O)(=O)N2CCCCC2)c1, which Potency is on record?
**A.** inactive

**Q.** Which Potency does the source give for CCC(C)Sc1nc2c(c(=O)[nH]c(=O)n2C)n1CCc1ccccc1 (stereo unspecified) here?
**A.** inconclusive [inhibitor, partial curve]

**Q.** Cc1cc(C)c(OCCN(C)C)c(Cl)c1 was tested. Which Potency did it give?
**A.** inconclusive [inhibitor, single point]

**Q.** How did the Potency turn out when N#CC1=C(N)N(c2ccccc2)C(c2cccc([N+](=O)[O-])c2)C1(C#N)C#N (stereo unspecified) was run?
**A.** inactive

**Q.** How did the Potency turn out when NC(=O)c1nn(CC(=O)Nc2ccc3c(c2)OCO3)cc1[N+](=O)[O-] was run?
**A.** inactive

**Q.** Which Potency does the source give for CN(C)S(=O)(=O)c1ccc(NC(=O)c2c(F)cccc2Cl)cc1 here?
**A.** inactive

**Q.** Which Potency does the source give for O=C(O)C1C2C=CC3(O2)C1C(=O)N1c2ccccc2C2OCCC2C13 (stereo unspecified) here?
**A.** inactive

**Q.** CC(C)N(C(=O)Nc1ccc2nsnc2c1)C(C)C was tested. Which Potency did it give?
**A.** inconclusive [inhibitor, partial curve]

**Q.** With COC(=O)c1cc(C(=O)Cc2ccccc2)c[nH]1 as the compound, how does the Potency read?
**A.** inconclusive [inhibitor, single point]

**Q.** For Cc1cc(C)[n+]2n1C(=O)C(c1ccccc1)=C2[O-], which Potency is on record?
**A.** inactive

**Q.** O=C(COc1ccc2c(c1)OCO2)Nc1ccccc1C(F)(F)F was tested. Which Potency did it give?
**A.** inactive

**Q.** Which Potency does the source give for COC(=O)N[C@@H](CCc1ccccc1)[C@]1(C(C)=O)CCCC1=O here?
**A.** inactive

**Q.** For CCCCCCCCSc1nnc(CSc2nc3nc(C)cc(C)n3n2)o1, which Potency is on record?
**A.** inactive

**Q.** Which Potency does the source give for COC(=O)c1c(NC(C)=O)sc(C(=O)Nc2ccccc2OC)c1C here?
**A.** inconclusive [inhibitor, partial curve]

**Q.** How did the Potency turn out when CCn1c(SCC(=O)NCCc2ccccc2)nc2c(c1=O)SC(C)C2 (stereo unspecified) was run?
**A.** inconclusive [inhibitor, single point]

**Q.** Cc1ccc(-c2cc(C(F)(F)F)n3ncc(C(=O)N4CCCCC4c4cccnc4)c3n2)cc1 (stereo unspecified) was tested. Which Potency did it give?
**A.** inconclusive [inhibitor, single point]

**Q.** Which Potency does the source give for Cc1cc(C)n2nc(C(=O)NCCc3ccccc3)nc2n1 here?
**A.** inconclusive [inhibitor, full curve]

**Q.** For O=C1OCC2=C1C(c1ccc(F)cc1)c1cc3c(cc1N2)OCCO3 (stereo unspecified), which Potency is on record?
**A.** inconclusive [inhibitor, partial curve]

**Q.** For Cn1c(=O)c2c(nc(CN3CCN(C(=O)c4ccco4)CC3)n2CCCc2ccccc2)n(C)c1=O, which Potency is on record?
**A.** active: 1.26 µM

**Q.** How did the Potency turn out when CCOc1ccc(OCC)c(S(=O)(=O)NCCOC23CC4CC(CC(C4)C2)C3)c1 was run?
**A.** inconclusive [inhibitor, single point]

**Q.** Which Potency does the source give for CC(C)(C)c1ccc(C(=O)N2CCCN(C(=O)c3ccc(C(C)(C)C)cc3)CC2)cc1 here?
**A.** inconclusive [inhibitor, single point]

**Q.** For C=Cc1c(C)c2cc3[nH]c(cc4nc(cc5nc(cc1[nH]2)C(C)=C5CCC(=O)O)C(CCC(=O)O)=C4C)c(C)c3C=C, which Potency is on record?
**A.** inactive

**Q.** Which Potency does the source give for CC1(C)Cc2nc3nc(SCC(=O)NCCc4ccccc4)n(-c4ccccc4)c(=O)c3cc2CO1 here?
**A.** active: 2.51 µM

**Q.** Which Potency does the source give for C/C=C/c1ccc(OCC(O)CN2CCCCC2CC)c(OC)c1 (stereo unspecified) here?
**A.** inconclusive [inhibitor, single point]

**Q.** How did the Potency turn out when Cc1ccc(CC(=O)N2CC(C)OC(C)C2)cc1 (stereo unspecified) was run?
**A.** inconclusive [inhibitor, single point]

**Q.** Which Potency does the source give for CCc1ccc(Nc2nc(N)nc(CSc3nc4ccccc4s3)n2)cc1 here?
**A.** inconclusive [inhibitor, single point]

**Q.** With CCOC(=O)c1ccc(NC(=S)N2CCCC2)cc1 as the compound, how does the Potency read?
**A.** inactive

**Q.** Which Potency does the source give for CN(C)C(=O)NC(O)C(Cl)Cl (stereo unspecified) here?
**A.** inconclusive [inhibitor, single point]

**Q.** How did the Potency turn out when COc1ccc2[nH]c(=O)c(CN(C(=O)c3ccccn3)c3ccccc3)cc2c1 was run?
**A.** inconclusive [inhibitor, single point]

**Q.** O=C1CCC(C(=O)OCC(=O)c2ccccc2)N1 (stereo unspecified) was tested. Which Potency did it give?
**A.** inactive

**Q.** With CCCCN(Cc1ccccc1)C(=O)CCN1C(=O)C2C3C=CC(C3)C2C1=O (stereo unspecified) as the compound, how does the Potency read?
**A.** active: 2.24 µM

**Q.** For COC(=O)c1sc(S(=O)(=O)Nc2ccc(Br)cc2)c(C(=O)OC)c1C, which Potency is on record?
**A.** inconclusive [inhibitor, single point]

**Q.** With CCC1CO/C(=C(\C(=C(Cl)Cl)N2CCOCC2)[N+](=O)[O-])N1 (stereo unspecified) as the compound, how does the Potency read?
**A.** inactive

**Q.** With CCCCSc1nc(C)cc(SCC(=O)N/N=C/c2cccc(OC)c2O)n1 as the compound, how does the Potency read?
**A.** inactive

**Q.** CCOc1cc(/C=C2/C(=O)N(c3ccccc3)N=C2C)ccc1OC(=O)c1cccs1 was tested. Which Potency did it give?
**A.** inconclusive [inhibitor, single point]

**Q.** CC(C)(C)c1ccc(C(=O)N2CCC(C(=O)NCc3ccncc3)CC2)cc1 was tested. Which Potency did it give?
**A.** inconclusive [inhibitor, single point]

**Q.** For COc1ccc(N2CCN(c3oc(-c4ccco4)nc3C#N)CC2)cc1, which Potency is on record?
**A.** inconclusive [inhibitor, single point]

**Q.** With Cc1cc2ccccn2c1C(=O)c1cc([N+](=O)[O-])cc([N+](=O)[O-])c1 as the compound, how does the Potency read?
**A.** inconclusive [inhibitor, partial curve]

**Q.** Which Potency does the source give for c1ccc(-c2nnc(N3CCN(c4ccccn4)CC3)c3ccccc23)cc1 here?
**A.** inconclusive [inhibitor, single point]

**Q.** Which Potency does the source give for CCOc1ccc(NC(=O)CNC(=O)c2ccc([N+](=O)[O-])cc2)cc1 here?
**A.** inconclusive [inhibitor, single point]

**Q.** CCO[C@H](c1cc(OC)cc([N+](=O)[O-])c1OC)[C@H](C)/C=C\CC(=O)OC was tested. Which activity, negative = inhibition did it give?
**A.** inactive: 2.36% [at 13.5 µM]

**Q.** How did the Potency turn out when COc1ccc(N=C/C=C2\C=C(c3ccccc3)OC(C)(C)O2)cc1 was run?
**A.** active: 2.24 µM

**Q.** How did the Potency turn out when C/[N+]([O-])=C\C1C(=O)CC(C)(C)CC1=O was run?
**A.** inconclusive [inhibitor, single point]

**Q.** For CC(C)[C@H](NC(=O)c1ccc(F)cc1)C(=O)NC1=NCCS1, which Potency is on record?
**A.** inactive

**Q.** Which Potency does the source give for COc1ccc(C2N3CC4(C)CN2CC(C)(C3)C4)cc1OC (stereo unspecified) here?
**A.** inconclusive [inhibitor, single point]

**Q.** How did the Potency turn out when Cc1cc(C)nc(SCC(=O)Nc2nc(-c3ccccc3)c(-c3ccccc3)o2)n1 was run?
**A.** inconclusive [inhibitor, single point]

**Q.** With Cc1cc(Cl)nc2ccc(Cc3ccc4nc(Cl)cc(C)c4c3)cc12 as the compound, how does the activity, negative = inhibition read?
**A.** inactive: 5.05% [at 13.5 µM]

**Q.** How did the Potency turn out when Nc1ccccc1C(=O)NCc1ccccc1 was run?
**A.** inconclusive [inhibitor, partial curve]

**Q.** How did the Potency turn out when COc1cccc(C2(O)CCN(C(=O)Cc3cccnc3)CC2)c1 was run?
**A.** inconclusive [inhibitor, single point]

**Q.** With COc1ccc(/C=N/OCC(=O)Nc2nc3ccccc3s2)cc1 as the compound, how does the Potency read?
**A.** inactive

**Q.** For O=C1[C@@H]2Cc3ccccc3CN2C(=O)N1c1cccc(F)c1, which Potency is on record?
**A.** inconclusive [inhibitor, partial curve, poor fit]

**Q.** For Cc1ccc(S(=O)(=O)N2CCOCC2)cc1C(=O)NCc1ccco1, which Potency is on record?
**A.** inconclusive [inhibitor, single point]

**Q.** CCOC(=O)CNC(=S)N(Cc1cccs1)C1CCCC1 was tested. Which Potency did it give?
**A.** inconclusive [inhibitor, single point]

**Q.** How did the Potency turn out when CCOC(=O)N1CCN(Cc2cc(=O)oc3ccc(Cl)cc23)CC1 was run?
**A.** inconclusive [inhibitor, partial curve]

**Q.** For COc1ccccc1NC(=O)CSc1ncn(-c2ccccc2)n1, which Potency is on record?
**A.** inconclusive [inhibitor, single point]

**Q.** Which Potency does the source give for COc1ccccc1-n1c(SCC(=O)N2CCc3ccccc32)nc2c(c1=O)SCC2 here?
**A.** active: 11.2 µM

**Q.** N#Cc1c(SCC(=O)Nc2nccs2)nc2c(c1-c1ccco1)CCCC2 was tested. Which Potency did it give?
**A.** inconclusive [inhibitor, single point]

**Q.** COC(=O)c1[nH]c2cc(OC)c(OC)cc2c1NC(=O)Oc1ccccc1 was tested. Which Potency did it give?
**A.** inconclusive [inhibitor, single point]

**Q.** Which Potency does the source give for O=C(O)CC1S/C(=N/N=C/c2ccc(-c3ccc(Cl)c([N+](=O)[O-])c3)o2)NC1=O (stereo unspecified) here?
**A.** inconclusive [inhibitor, single point]

**Q.** For COc1ccc(OC)c(CN2CCN(C(=O)c3cccc4ccccc34)CC2)c1, which Potency is on record?
**A.** active: 25.1 µM

**Q.** COc1ccc(-c2cc(C(F)(F)F)nc(SCC(=O)Nc3cc(C)on3)n2)cc1 was tested. Which Potency did it give?
**A.** inconclusive [inhibitor, partial curve]
